Test results reported in US8669255B2, “Substituted octahydropyrrolo[1,2-a]pyrazines as calcium channel blockers” (AbbVie Inc., priority 2011, dated 2014).

These molecules were tested against human Cav2.2 (Homo sapiens, UniProt Q00975) (assay: In vitro assessment of calcium channel activity using FLIPR (Ca2+ influx in IMR32 cells)). Conditions: IMR32 cells endogenously expressing human Cav2.2; 60 minute pre-incubation; 2 μM nifedipine; depolarized with 80 mM KCl; average of at least two runs unless marked (*).
Format: cell-based
Protocol: (i) In Vitro Assessment of Calcium Channel Activity Using FLIPR
The IMR32 cells were maintained in MEM media containing 10% (v/v) FBS, 1% (v/v) antibiotic/antimitotic, 1% (v/v) sodium pyruvate and 1% (v/v) MEM NEAA. Following dissociation in 0.05% (v/v) trypsin/EDTA, cells were seeded into black 1×96-well plates (Corning Cellbind) at a density of 1-1.2×10^5 cells/well and incubated in the maintenance media above for 48 hours at 37° C. Immediately prior to performing the assay the media was removed and cells were loaded for 1.5 hours with 1× Calcium 4 dye prepared in HBSS (137 mM NaCl, 5.4 mM KCl, 0.25 mM Na2HPO4, 0.44 mM KH2PO4, 1.3 mM CaCl2, 1 mM MgSO4, 4.2 mM NaHCO3) containing HEPES pH 7.4 at room temperature. After dye loading and a subsequent 60 minute pre-incubation with compounds (full log dilutions from 10 μM to 0.1 nM) in the presence of 1.3 mM CaCl2 and 2 μM nifedipine to block endogenous L-type channels, the external Ca^2+concentration was increased to 5 mM CaCl2 and the cells concomitantly depolarized with 80 mM KCl to assay channel activity. To determine the IC50 values, the percent inhibition of the compound at each concentration was determined relative to the activity in the absence of inhibitor, and data was fitted using non-linear regression sigmoidal dose response curve analysis with GraphPad Prism®. Unless otherwise indicated (*), the reported values are average values from at least two runs (i.e., n≧2).

`O=C(N[C@H]1C[C@H]2CN(C(c3ccccc3)c3ccccc3)CCN2C1)c1ccc(F)cc1` [Example 17, N-[(7S,8aS)-2-(diphenylmethyl)octahydropyrrolo[1,2-a]pyrazin-7-yl]-4-fluorobenzamide] and `O=C(c1ccc(F)cc1)N1CCN2C[C@@H](NS(=O)(=O)c3cccc(C(F)(F)F)c3)C[C@H]2C1` [Example 43, N-[(7S,8aS)-2-(4-fluorobenzoyl)octahydropyrrolo[1,2-a]pyrazin-7-yl]-3-(trifluoromethyl)benzenesulfonamide] are within 1.5-fold of each other in IC50: 3.47 µM for the first, 4.86 µM for the second.

`CC(C)(C)OC(=O)N1CCN2C[C@@H](Nc3cccc(C(F)(F)F)n3)C[C@H]2C1` [Example 18A, tert-butyl (7S,8aS)-7-{[6-(trifluoromethyl)pyridin-2-yl]amino}hexahydro-pyrrolo[1,2-a]pyrazine-2(1H)-carboxylate] and `CC(C)(C)OC(=O)N1CCN2C[C@@H](Nc3ccc(C(F)(F)F)cn3)C[C@H]2C1` [Example 19, tert-butyl (7S,8aS)-7-{[5-(trifluoromethyl)pyridin-2-yl]amino}hexahydro-pyrrolo[1,2-a]pyrazine-2(1H)-carboxylate] are within 1.5-fold of each other in IC50: 2.43 µM for the first, 2.97 µM for the second.

Compared with `FC(F)(F)c1ccc(N[C@H]2C[C@H]3CNCCN3C2)nc1` [Example 20, (7S,8aS)-N-[5-(trifluoromethyl)pyridin-2-yl]octahydropyrrolo[1,2-a]-pyrazin-7-amine], `FC(F)(F)c1ccnc(N[C@H]2C[C@H]3CNCCN3C2)n1` [Example 33, (7S,8aS)-N-[4-(trifluoromethyl)pyrimidin-2-yl]octahydropyrrolo[1,2-a]-pyrazin-7-amine] is higher in IC50: 17.6 µM for the first, > 30 µM for the second.

`CCC(CC)C(=O)N1CCN2C[C@@H](Nc3ccc(C(F)(F)F)cn3)C[C@H]2C1` [Example 21, 2-ethyl-1-[(7S,8aS)-7-{[5-(trifluoromethyl)pyridin-2-yl]amino}-hexahydropyrrolo[1,2-a]pyrazin-2(1H)-yl]butan-1-one] and `CCC(CC)C(=O)N1CCN2C[C@@H](Nc3cccc(C(F)(F)F)n3)C[C@H]2C1` [Example 27, 2-ethyl-1-[(7S,8aS)-7-{[6-(trifluoromethyl)pyridin-2-yl]amino}hexahydro-pyrrolo[1,2-a]pyrazin-2(1H)-yl]butan-1-one] are within 1.5-fold of each other in IC50: 8.98 µM for the first, 9.66 µM for the second.

`O=C(CCC(F)(F)F)N1CCN2C[C@@H](Nc3ccc(C(F)(F)F)cn3)C[C@H]2C1` [Example 22, 4,4,4-trifluoro-1-[(7S,8aS)-7-{[5-(trifluoromethyl)pyridin-2-yl]amino}-hexahydropyrrolo[1,2-a]pyrazin-2(1H)-yl]butan-1-one] and `O=C(CCCC(F)(F)F)N1CCN2C[C@@H](Nc3ccc(C(F)(F)F)cn3)C[C@H]2C1` [Example 23, 5,5,5-trifluoro-1-[(7S,8aS)-7-{[5-(trifluoromethyl)pyridin-2-yl]amino}-hexahydropyrrolo[1,2-a]pyrazin-2(1H)-yl]pentan-1-one] are within 1.5-fold of each other in IC50: 16.4 µM for the first, 16.8 µM for the second.

First: CC(C)(C)CC(=O)N1CCN2C[C@@H](Nc3ccc(C(F)(F)F)cn3)C[C@H]2C1 [Example 24, 3,3-dimethyl-1-[(7S,8aS)-7-{[5-(trifluoromethyl)pyridin-2-yl]amino}-hexahydropyrrolo[1,2-a]pyrazin-2(1H)-yl]butan-1-one]
Second: O=C(CC(F)(F)F)N1CCN2C[C@@H](Nc3cccc(C(F)(F)F)n3)C[C@H]2C1 [Example 30, 3,3,3-trifluoro-1-[(7S,8aS)-7-{[6-(trifluoromethyl)pyridin-2-yl]amino}-hexahydropyrrolo[1,2-a]pyrazin-2(1H)-yl]propan-1-one]
The IC50 of the first is lower: 15.7 µM for the first, > 30 µM for the second.

`O=C(c1ccc(Cl)cc1)N1CCN2C[C@@H](Nc3ccc(C(F)(F)F)cn3)C[C@H]2C1` [Example 25, (4-chlorophenyl)[(7S,8aS)-7-{[5-(trifluoromethyl)pyridin-2-yl]amino}-hexahydropyrrolo[1,2-a]pyrazin-2(1H)-yl]methanone] and `O=C(c1ccc(Cl)cc1)N1CCN2C[C@@H](Nc3cccc(C(F)(F)F)n3)C[C@H]2C1` [Example 26, (4-chlorophenyl)[(7S,8aS)-7-{[6-(trifluoromethyl)pyridin-2-yl]amino}-hexahydropyrrolo[1,2-a]pyrazin-2(1H)-yl]methanone] are within 1.5-fold of each other in IC50: 4.23 µM for the first, 4.74 µM for the second.

Going from `O=C(CCCC(F)(F)F)N1CCN2C[C@@H](Nc3cccc(C(F)(F)F)n3)C[C@H]2C1` [Example 28, 5,5,5-trifluoro-1-[(7S,8aS)-7-{[6-(trifluoromethyl)pyridin-2-yl]amino}-hexahydropyrrolo[1,2-a]pyrazin-2(1H)-yl]pentan-1-one] to `O=C(CCC(F)(F)F)N1CCN2C[C@@H](Nc3cccc(C(F)(F)F)n3)C[C@H]2C1` [Example 29, 4,4,4-trifluoro-1-[(7S,8aS)-7-{[6-(trifluoromethyl)pyridin-2-yl]amino}-hexahydropyrrolo[1,2-a]pyrazin-2(1H)-yl]butan-1-one], the IC50 rises from 2.81 µM to 13.1 µM (4.7-fold). The first is the more potent here.

First: O=C(c1cccc(C(F)(F)F)c1)N1CCN2C[C@@H](Nc3ccc(Cl)cn3)C[C@H]2C1 [Example 31, [(7S,8aS)-7-[(5-chloropyridin-2-yl)amino]hexahydropyrrolo[1,2-a]pyrazin-2(1H)-yl][3-(trifluoromethyl)phenyl]methanone]
Second: FC(F)(F)c1cccc(N2CCN3C[C@@H](Nc4ccc(Cl)cn4)C[C@H]3C2)n1 [Example 37, (7S,8aS)-N-(5-chloropyridin-2-yl)-2-[6-(trifluoromethyl)pyridin-2-yl]-octahydropyrrolo[1,2-a]pyrazin-7-amine]
The IC50 of the first is 2-fold higher: 3.83 µM for the first, 1.93 µM for the second.

Compared with `CC(C)(C)OC(=O)N1CCN2C[C@@H](Nc3nccc(C(F)(F)F)n3)C[C@H]2C1` [Example 32, tert-butyl (7S,8aS)-7-{[4-(trifluoromethyl)pyrimidin-2-yl]amino}-hexahydropyrrolo[1,2-a]pyrazine-2(1H)-carboxylate], `CC(C)(C)OC(=O)N1CCN2C[C@@H](NS(=O)(=O)c3cccc(C(F)(F)F)c3)C[C@H]2C1` [Example 41, tert-butyl (7S,8aS)-7-({[3-(trifluoromethyl)phenyl]sulfonyl}amino)-hexahydropyrrolo[1,2-a]pyrazine-2(1H)-carboxylate] is 6-fold lower in IC50: 8.45 µM for the first, 1.42 µM for the second.

First: O=C(c1ccc(F)c(Cl)c1)N1CCN2C[C@@H](Nc3nccc(C(F)(F)F)n3)C[C@H]2C1 [Example 34, (3-chloro-4-fluorophenyl)[(7S,8aS)-7-{[4-(trifluoromethyl)pyrimidin-2-yl]-amino}hexahydropyrrolo[1,2-a]pyrazin-2(1H)-yl]methanone]
Second: FC(F)(F)c1ccnc(N[C@H]2C[C@H]3CN(c4ccc(Cl)cn4)CCN3C2)n1 [Example 35, (7S,8aS)-2-(5-chloropyridin-2-yl)-N-[4-(trifluoromethyl)pyrimidin-2-yl]-octahydropyrrolo[1,2-a]pyrazin-7-amine]
The IC50 of the first is 2.1-fold higher: 7.84 µM for the first, 3.69 µM for the second.

Going from `FC(F)(F)c1cccc(N2CCN3C[C@@H](Nc4nccc(C(F)(F)F)n4)C[C@H]3C2)n1` [Example 36, (7S,8aS)-2-[6-(trifluoromethyl)pyridin-2-yl]-N-[4-(trifluoromethyl)-pyrimidin-2-yl]octahydropyrrolo[1,2-a]pyrazin-7-amine] to `FC(F)(F)c1cccc(N[C@H]2C[C@H]3CN(c4cccc(C(F)(F)F)n4)CCN3C2)n1` [Example 39, (7S,8aS)-N,2-bis[6-(trifluoromethyl)pyridin-2-yl]octahydropyrrolo[1,2-a]-pyrazin-7-amine], the IC50 rises from 1.53 µM to 2.35 µM (1.5-fold).

Compared with `FC(F)(F)c1ccnc(N2CCN3C[C@@H](Nc4ccc(Cl)cn4)C[C@H]3C2)n1` [Example 38, (7S,8aS)-N-(5-chloropyridin-2-yl)-2-[4-(trifluoromethyl)pyrimidin-2-yl]-octahydropyrrolo[1,2-a]pyrazin-7-amine], `FC(F)(F)c1cccc(N[C@H]2C[C@H]3CN(c4ccc(Cl)cn4)CCN3C2)n1` [Example 40, (7S,8aS)-2-(5-chloropyridin-2-yl)-N-[6-(trifluoromethyl)pyridin-2-yl]-octahydropyrrolo[1,2-a]pyrazin-7-amine] is 3.1-fold higher in IC50: 1.82 µM for the first, 5.63 µM for the second. The first is the more potent here.

Compared with `O=S(=O)(N[C@H]1C[C@H]2CNCCN2C1)c1cccc(C(F)(F)F)c1` [Example 42, N-[(7S,8aS)-octahydropyrrolo[1,2-a]pyrazin-7-yl]-3-(trifluoromethyl)-benzenesulfonamide], `CC(C)N1CCN2C[C@@H](NS(=O)(=O)c3cccc(C(F)(F)F)c3)C[C@H]2C1` [Example 45, N-[(7S,8aS)-2-isopropyloctahydropyrrolo[1,2-a]pyrazin-7-yl]-3-(trifluoromethyl)benzenesulfonamide] is 2.4-fold lower in IC50: 16.4 µM for the first, 6.71 µM for the second.

`O=C(c1ccc(C(F)(F)F)cc1)N1CCN2C[C@@H](NS(=O)(=O)c3cccc(C(F)(F)F)c3)C[C@H]2C1` [Example 44, 3-(trifluoromethyl)-N-{(7S,8aS)-2-[4-(trifluoromethyl)benzoyl]-octahydropyrrolo[1,2-a]pyrazin-7-yl}benzenesulfonamide] and `O=S(=O)(N[C@H]1C[C@H]2CN(Cc3cccc(C(F)(F)F)c3)CCN2C1)c1cccc(C(F)(F)F)c1` [Example 46, 3-(trifluoromethyl)-N-{(7S,8aS)-2-[3-(trifluoromethyl)benzyl]-octahydropyrrolo[1,2-a]pyrazin-7-yl}benzenesulfonamide] are within 1.5-fold of each other in IC50: 0.91 µM for the first, 0.94 µM for the second.
